Measurements from patent publication US20170306053A1 (Astellas, published 2017).
Like-named read-outs stand apart in the source and are kept apart here. Values belong to the binder of their own block, whether it stands above or below them.

Legend:
[1] = molecular target: T1, human TLR4/MD2 (on cells) (human, UniProt O00206 24-839; Q9Y6Y9 19-160); experiment: cell-based or functional assay
[2] = molecular target: T1, human TLR4/MD2 (on cells); experiment: cell ELISA on human TLR4/MD2 expressing HEK 293 cells
Experimental: In order to evaluate the binding activity of the tandem form a (bispecific antibody format having the anti-human TLR2 antibody portion on the outer side and the anti-human TLR4 antibody portion on the inner side) prepared in Example 1 to the human TLR4, cell ELISA was performed. As reference antibodies, the tandem form c and the TLR4-IgG were used. Human TLR4/MD2 expressing HEK 293 cells were seeded at 1×10⁴ cells/well in a BD Bio Coat poly D-lysine 384 well plate (Becton Dickinson Co., Ltd.) using an α-MEM culture medium (Life Technologies Co., Ltd.) and incubated overnight. […] Twenty minutes later, 25 μL of 1 M sulfuric acid was added to stop the color reaction, and the color intensity thereof was measured with Safire II (Tecan Co., Ltd.) to evaluate the binding activity of the antibody. Using the obtained measurement results, 50% effective concentration (EC₅₀) of each antibody was calculated from 4 parameter logistic curve regression by statistical analysis software GraphPad Prism (GraphPad Software Co., Ltd.).

[3] = molecular target: T2, human TLR2 protein (R&D systems Co., 2616 TR/CF) (human, UniProt O60603 in part); experiment: SPR (Biacore T200), human TLR2 captured on anti-His IgG, antibody as analyte, bivalent analyte model
T2 construct: Bought protein captured on an anti-His IgG chip; not shown: His tag implied by capture on anti-His IgG
Experimental: In order to evaluate the binding activity of the tandem form a prepared in Example 1 to the human TLR2, SPR analysis was performed. The tandem form c and the TLR2-IgG were used as the reference antibody. For SPR analysis, Biacore T200 (GE Healthcare Japan Corporation) was used. Anti-His IgG (attached to His Capture Kit) was immobilized on CMS sensor chip using His Capture Kit (GE Healthcare Japan Corporation, 28-9950-56) and Amine Coupling Kit (GE Healthcare Japan Corporation, BR-1000-50). […] Thereafter, a solution (eight step, two fold serial dilution in the concentration range of final concentration from 100 nM to 0.781 nM) obtained by serially diluting each purified antibody (tandem form a, tandem form c, or TLR 2-IgG) with HBS-EP+buffer was added at a flow rate of 50 μL/min for 2 minutes, and the binding between the purified antibody and TLR 2 was measured. Next, HBS-EP+buffer was added at a flow rate of 50 μL/min for 5 minutes, and dissociation of the purified antibody and the human TLR2 was measured. Bivalent analyte model, Rmax was analyzed by Fit local, a binding rate constant (kₐ) and a dissociation rate constant (kd) were calculated, and kd was divided by kₐ to calculate the binding dissociation constant (KD).

[4] = molecular target: T1, human TLR4/MD2 (on cells); experiment: cell-based or functional assay; remark: listed apart in the source

T1 sequence (O00206 24-839, chain 1 of 2): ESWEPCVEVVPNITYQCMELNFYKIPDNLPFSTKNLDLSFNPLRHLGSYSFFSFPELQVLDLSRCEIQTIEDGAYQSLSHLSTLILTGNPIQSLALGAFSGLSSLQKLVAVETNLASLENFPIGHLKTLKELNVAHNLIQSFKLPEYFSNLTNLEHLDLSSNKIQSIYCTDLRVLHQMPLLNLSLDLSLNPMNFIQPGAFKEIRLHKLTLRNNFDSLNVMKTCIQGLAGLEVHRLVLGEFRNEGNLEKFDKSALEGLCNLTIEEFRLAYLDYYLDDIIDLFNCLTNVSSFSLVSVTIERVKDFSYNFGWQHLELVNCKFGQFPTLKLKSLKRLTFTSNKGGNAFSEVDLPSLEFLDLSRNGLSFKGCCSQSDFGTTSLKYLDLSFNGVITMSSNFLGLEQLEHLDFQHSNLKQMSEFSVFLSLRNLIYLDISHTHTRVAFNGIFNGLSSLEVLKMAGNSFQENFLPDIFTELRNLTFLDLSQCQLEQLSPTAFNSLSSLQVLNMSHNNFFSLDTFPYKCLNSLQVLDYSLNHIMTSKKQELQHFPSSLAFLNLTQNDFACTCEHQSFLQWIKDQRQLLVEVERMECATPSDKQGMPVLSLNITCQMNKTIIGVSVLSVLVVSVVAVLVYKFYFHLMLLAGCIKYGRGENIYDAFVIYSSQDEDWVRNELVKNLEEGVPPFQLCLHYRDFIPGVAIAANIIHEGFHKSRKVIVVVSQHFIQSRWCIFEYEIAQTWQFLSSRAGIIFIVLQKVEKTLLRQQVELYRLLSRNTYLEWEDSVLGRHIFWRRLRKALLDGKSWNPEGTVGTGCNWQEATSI
T1 sequence (Q9Y6Y9 19-160, chain 2 of 2, further chain): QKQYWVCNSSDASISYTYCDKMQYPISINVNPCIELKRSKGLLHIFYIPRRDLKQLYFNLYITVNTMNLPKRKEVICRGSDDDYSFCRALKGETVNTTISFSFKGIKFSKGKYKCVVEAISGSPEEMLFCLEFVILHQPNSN
T2 sequence (O60603 21-590): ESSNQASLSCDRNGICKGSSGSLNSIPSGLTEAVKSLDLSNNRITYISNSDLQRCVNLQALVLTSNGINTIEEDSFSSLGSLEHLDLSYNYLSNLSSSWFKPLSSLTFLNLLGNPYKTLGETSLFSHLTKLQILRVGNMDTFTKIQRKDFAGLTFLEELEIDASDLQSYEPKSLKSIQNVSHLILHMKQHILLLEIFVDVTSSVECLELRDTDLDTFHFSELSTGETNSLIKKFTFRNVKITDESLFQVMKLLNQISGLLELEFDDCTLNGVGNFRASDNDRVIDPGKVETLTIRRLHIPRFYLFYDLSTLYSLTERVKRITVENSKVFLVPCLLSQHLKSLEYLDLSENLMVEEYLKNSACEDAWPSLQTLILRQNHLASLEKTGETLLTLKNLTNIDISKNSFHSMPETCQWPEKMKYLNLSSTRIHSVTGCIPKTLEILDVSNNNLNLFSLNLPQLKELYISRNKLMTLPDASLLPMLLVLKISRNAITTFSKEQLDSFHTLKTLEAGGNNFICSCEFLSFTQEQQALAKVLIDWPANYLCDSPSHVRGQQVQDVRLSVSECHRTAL

IC50 (M), Neutralization Activity to Human TLR4 (LPS-induced IL-6 production inhibition, U937 cells) [1]: 3.52e-11 M | EC50 [2]: 38.5 nM | Kd [3]: 2.56 nM
B1: Tandem form c (bispecific antibody, human IgG1, kappa)
heavy: QVQLQESGPGLVKPSETLSLTCTVSGGSISSFYWTWIRQPPGKGLEWIGYIHYSGSTNYNPSLKSRVTISVDTSKNQFSLTLSSVTAADTAVYYCARRRSMNWFDPWGQGTLVIVSSASTKGPSVFPLAPSSKSTSGGTAALGCLVKDYFPEPVTVSWNSGALTSGVHTFPAVLQSSGLYSLSSVVTVPSSSLGTQTYICNVNHKPSNTKVDKKVEPKSCDGGGGSGGGGSGGGGSEVQLVESGGGLVQPGGSLRLSCAASGFTFDTYAMHWVRQAPGKGLEWVAGISWNSGNIGYADSVKGRFTISRDNSKNTLYLQMNSLRAEDTAVYYCAKDWDNWNLFDYWGQGTLVTVSS[letters of human IgG1 constant region omitted]
light: AIQMTQSPSSLSASVGDRVTITCRASQVIRNDLGWYQQKPGKAPKFLIYAASSLQSGVPSRFSGSGSGTDFTLTISSLQPEDFATYYCLQDYNYPLTFGGGTKVEIKRTVAAPSVFIFPPSDEQLKSGTASVVCLLNNFYPREAKVQWKVDNALQSGNSQESVTEQDSKDSTYSLSSTLTLSKADYEKHKVYACEVTHQGLSSPVTKSFNRGECGGGGSGGGGSGGGGSDIQMTQSPSSLSASVGDRVTITCRASQSISSWLAWYQQKPGKAPKLLIYKASSLESGVPSRFSGSGSGTDFTLTISSLQPEDFATYYCQQYSSYSWTFGQGTKVEIKRTVAAPSVFIFPPSDEQLKSGTASVVCLLNNFYPREAKVQWKVDNALQSGNSQESVTEQDSKDSTYSLSSTLTLSKADYEKHKVYACEVTHQGLSSPVTKSFNRGEC
notes: Same as tandem form a but the two light chains stay linked through ((Gly)4Ser)3, no protease site (uncleaved light chain polypeptide)

IC50 (M), Neutralization Activity to Human TLR4 (LPS-induced IL-6 production inhibition, U937 cells) [4]: 4.9e-12 M
B2: Tandem form d (bispecific antibody, human IgG1, kappa)
heavy: EVQLVESGGGLVQPGGSLRLSCAASGFTFDTYAMHWVRQAPGKGLEWVAGISWNSGNIGYADSVKGRFTISRDNSKNTLYLQMNSLRAEDTAVYYCAKDWDNWNLFDYWGQGTLVTVSSASTKGPSVFPLAPSSKSTSGGTAALGCLVKDYFPEPVTVSWNSGALTSGVHTFPAVLQSSGLYSLSSVVTVPSSSLGTQTYICNVNHKPSNTKVDKKVEPKSCDGGGGSGGGGSGGGGSQVQLQESGPGLVKPSETLSLTCTVSGGSISSFYWTWIRQPPGKGLEWIGYIHYSGSTNYNPSLKSRVTISVDTSKNQFSLTLSSVTAADTAVYYCARRRSMNWFDPWGQGTLVIVSS[letters of human IgG1 constant region omitted]
light: DIQMTQSPSSLSASVGDRVTITCRASQSISSWLAWYQQKPGKAPKLLIYKASSLESGVPSRFSGSGSGTDFTLTISSLQPEDFATYYCQQYSSYSWTFGQGTKVEIKRTVAAPSVFIFPPSDEQLKSGTASVVCLLNNFYPREAKVQWKVDNALQSGNSQESVTEQDSKDSTYSLSSTLTLSKADYEKHKVYACEVTHQGLSSPVTKSFNRGECGGGGSGGGGSGGGGSAIQMTQSPSSLSASVGDRVTITCRASQVIRNDLGWYQQKPGKAPKFLIYAASSLQSGVPSRFSGSGSGTDFTLTISSLQPEDFATYYCLQDYNYPLTFGGGTKVEIKRTVAAPSVFIFPPSDEQLKSGTASVVCLLNNFYPREAKVQWKVDNALQSGNSQESVTEQDSKDSTYSLSSTLTLSKADYEKHKVYACEVTHQGLSSPVTKSFNRGEC
